Among all 220,000 compounds or so, about 16,000 (7.3%) were called active. The inconclusive results got no clear call from the source; some entries with a clear call stand among them for comparison. Calls follow the shape of the dose curve; as a rule, active = well fitted inhibition curve with a large enough effect (not every such curve was filed as active); inconclusive = small, poorly fitted or top-dose-only effect, or another doubt; inactive = no such curve, though single readings can be large or run the other way. Potencies of inconclusive entries are left out as doubtful fits.
molecular target: Aldehyde dehydrogenase 1A1 (Homo sapiens) (UniProt P00352); assay: qHTS Assay for Inhibitors of Aldehyde Dehydrogenase 1 (ALDH1A1); conditions: Purified ALDH1A1, NADH fluorescence, propionaldehyde substrate; series mostly up to 75.3 µM; activity, negative = inhibition: at the top concentration;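 as to activity, negative = inhibition: plate controls were no enzyme wells and a reference inhibitor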
Potency is read from the fitted curve at half-maximal effect; tags tell the direction and shape of the fitted curve.

Chain of UniProt P00352 (P00352 whole entry, looked up): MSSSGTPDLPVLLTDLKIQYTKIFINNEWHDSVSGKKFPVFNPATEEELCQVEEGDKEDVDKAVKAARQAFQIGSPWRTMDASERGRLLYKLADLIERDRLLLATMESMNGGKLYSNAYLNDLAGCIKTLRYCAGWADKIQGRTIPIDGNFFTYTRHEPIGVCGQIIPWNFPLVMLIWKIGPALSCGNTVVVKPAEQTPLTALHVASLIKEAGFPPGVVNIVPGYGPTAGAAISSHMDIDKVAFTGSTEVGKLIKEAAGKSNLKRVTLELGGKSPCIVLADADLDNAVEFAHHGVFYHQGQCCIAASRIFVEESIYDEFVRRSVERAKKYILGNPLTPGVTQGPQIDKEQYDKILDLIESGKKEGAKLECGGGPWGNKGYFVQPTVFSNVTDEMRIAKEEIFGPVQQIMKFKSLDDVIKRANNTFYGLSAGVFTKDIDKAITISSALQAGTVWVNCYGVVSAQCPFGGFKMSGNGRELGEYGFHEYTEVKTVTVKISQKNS

| SMILES | Potency | activity, negative = inhibition |
| --- | --- | --- |
| Cc1cc(NC(=O)c2ccccc2F)n(-c2nc3ccccc3[nH]2)n1 | inconclusive [inhibitor, single point] | – |
| CCOc1ccccc1NC(=O)c1ccc(S(=O)(=O)N(C)C)cc1 | active: 14.1 µM | – |
| CCOc1ccc2[nH]c(C)c(CN3CCOCC3)c(=O)c2c1 | inconclusive [inhibitor, single point] | – |
| O=c1ccc(-c2n[nH]c(=S)n2-c2ccc(F)c(Cl)c2)n[nH]1 | – | inactive: -0.476% |
| CCOc1ccc(C(=O)Nc2ccccc2N2CCOCC2)cc1 | – | inactive: -7.72% |
| COC(=O)C1=C(C)NC2=C(C(=O)CC(C)(C)C2)C1c1cn(Cc2ccc(Br)cc2)nc1-c1ccccc1 (stereo unspecified) | inconclusive [inhibitor, partial curve] | – |
| Cc1[nH]c2ccccc2c1[C@H]1[C@@H](CC#N)C1(C)C | active: 22.4 µM | – |
| CCSc1nc2c([nH]c3ccccc32)c(=O)n1C | inconclusive [inhibitor, single point] | – |
| Cc1nn(C)cc1/C=N/O | – | inactive: 5.31% |
| COc1ccc(C2(NC(C)=O)CCN(C(=O)c3ccco3)CC2)cc1 | – | inactive: -1% |
| O=C(CSc1nc2ccccc2c(=O)n1-c1ccc(F)cc1)NCc1ccco1 | inconclusive [inhibitor, single point] | – |
| COc1ccc(-c2nc3ccccc3o2)cc1NC(=O)c1ccc(Br)o1 | inconclusive [inhibitor, single point] | – |
| O=C(c1ccco1)N1CCN(c2cc(N3CCOCC3)c(F)cc2[N+](=O)[O-])CC1 | – | inactive: -2.8% |
| CCSc1ncc(Cl)c(C(=O)Nc2sc3c(c2C(=O)NCc2cccnc2)CCCC3)n1 | inconclusive [inhibitor, full curve] | – |
| N#Cc1ccc(-c2ccco2)nc1SCC(=O)c1ccc(Cl)cc1 | inconclusive [inhibitor, single point] | – |
| C=CCC(c1ccccc1)N(C(C)=O)c1ccco1 (stereo unspecified) | – | inactive: -8.56% |
| COc1cc(S(=O)(=O)NCc2ccccc2)ccc1F | – | inactive: -14.7% |
| CCN1CCCC1CNCc1cccc(OC)c1OCc1ccc(F)cc1 (stereo unspecified) | – | inactive: -0.416% |
| CCOc1ccccc1Nc1nc(-c2sc(NC(=O)c3cccc(Cl)c3)nc2C)cs1 | inconclusive [inhibitor, single point] | – |
| CCOC(=O)C1CCN(c2nc(-c3ccccc3)nc3c2oc2ccccc23)CC1 | inconclusive [inhibitor, single point] | – |
| O=C1CC(NCC2CCCO2)C(=O)N1c1ccc(Cl)cc1 (stereo unspecified) | inconclusive [inhibitor, single point] | – |
| COc1cccc(CN(C(=O)Cc2c[nH]c3ccccc23)C(C(=O)NC2CCCCC2)c2cccs2)c1 (stereo unspecified) | inconclusive [inhibitor, single point] | – |
| CC(=O)N1CCC(=NNC(=O)c2cccs2)CC1 | – | inactive: -15.5% |
| COc1ccc(NC(=S)N2CCN(C(=O)C3CCCO3)CC2)c(OC)c1 (stereo unspecified) | – | inactive: -6.81% |
| COc1ccc(NC(=O)Nc2cccc([N+](=O)[O-])c2)cc1Cl | inconclusive [inhibitor, single point] | – |
| O=C1C2C3C=CC(C3)C2C(=O)N1CCc1ccccc1 (stereo unspecified) | active: 11.2 µM | – |

| SMILES | Potency | activity, negative = inhibition |
| --- | --- | --- |
| N#Cc1nc(-c2ccccc2)oc1NCCCn1ccnc1 | inconclusive [inhibitor, partial curve] | – |
| CN(C)c1ccc(C2N3CC4(C)CN2CC(C)(C3)C4O)cc1 (stereo unspecified) | active: 0.891 µM | – |
| Cc1ccc(NC(=O)CSc2n[nH]c(=O)n2C2CC2)cc1S(=O)(=O)N1CCOCC1 | inconclusive [inhibitor, single point] | – |
| Cc1ccccc1-n1nnnc1SC1CCOC1=O (stereo unspecified) | active: 11.2 µM | – |
| Cc1ccc(/C=N/n2c(-c3ccco3)n[nH]c2=S)s1 | active: 11.2 µM | – |
| CCC(C)[C@H](NC(=O)N1CCC(C)CC1)C(=O)OC (stereo partly specified) | – | inactive: 4.61% |
| Cc1nc(Sc2ccc(Cl)cc2)c(C#N)c(C)c1[N+](=O)[O-] | – | inactive: 2.29% |
| COC(=O)c1ccc(C=O)cc1 | active: 8.91 µM | – |
| N#Cc1c(N2CCN(C(=O)c3ccccc3Cl)CC2)nc(-c2ccccc2)c2c1CCCC2 | inconclusive [inhibitor, partial curve] | – |
| Cc1ccc(Cn2nnnc2CN2CCC(O)(c3ccc(F)cc3)CC2)cc1 | inconclusive [inhibitor, single point] | – |
| Cc1[nH][nH]c(=O)c1C(c1c(C)[nH][nH]c1=O)c1cn(C)c2ccccc12 | inconclusive [inhibitor, single point] | – |
| COc1ccc(CNc2ccnc(-c3ccccc3C(F)(F)F)n2)c(OC)c1 | – | inactive: -1.45% |
| O=C1CC(N2CCCc3ccccc32)C(=O)N1c1ccccc1Cl (stereo unspecified) | inconclusive [inhibitor, single point] | – |
| CSc1ccccc1NS(=O)(=O)c1ccccc1 | active: 8.91 µM | – |
| COc1ccc2cc(C(c3nnnn3CC3CCCO3)N3CCOCC3)c(=O)[nH]c2c1 (stereo unspecified) | – | inactive: -15% |
| CN(C)S(=O)(=O)N1CCN(S(=O)(=O)c2ccc(F)cc2)CC1 | – | inactive: 3.44% |
| COc1ccc(C(=O)COC(=O)C2CCCN2C(=O)C23CC4CC(CC(C4)C2)C3)cc1 (stereo unspecified) | inconclusive [inhibitor, single point] | – |
| CC(C)Cc1nc2sc3c(=O)n(N)cnc3c2c2c1COC(C)(C)C2 | inconclusive [inhibitor, partial curve, poor fit] | – |
| CNC(=S)NNC(=O)c1noc(C)c1C(=O)N1CCN(C(c2ccccc2)c2ccccc2)CC1 | – | inactive: -0.949% |
| CC(=O)Nc1cc(N2C(=O)CCC2=O)ccc1Cl | – | inactive: 7.7% |
| Cc1cc(/C=N/NC(N)=S)c(C)n1-c1ccc(Br)cc1 | active: 15.8 µM | – |
| CC(=O)OC[C@@H]1O[C@@H](O/N=C2/C[C@@H](O)[C@@H](O)[C@@H]3[C@@H]4C(=O)N([C@@H](C)c5ccccc5)C(=O)[C@H]4CC[C@@H]23)[C@H](OC(C)=O)[C@H](OC(C)=O)[C@@H]1OC(C)=O | – | inactive: 4.17% [at 13.5 µM] |
| CC(C)COc1ccc(-c2nn(-c3ccccc3)cc2C(=O)Nc2nccs2)cc1 | inconclusive [inhibitor, single point] | – |
| O=C(CS(=O)(=O)c1ccc(Cl)c(Cl)c1)Nc1ccccc1Cl | inconclusive [inhibitor, partial curve] | – |
| C=CCn1c(/N=C/c2ccc3c(c2)OCO3)nc2ccccc21 | inconclusive [inhibitor, partial curve, poor fit] | – |
| CCc1c(C)c2cc(Cl)c(O)c(CN(CC)CC)c2oc1=O | inconclusive [inhibitor, partial curve] | – |

| SMILES | Potency | activity, negative = inhibition |
| --- | --- | --- |
| COC(=O)c1c(NC(=O)CN2CCC3(O)CCCCC3C2c2ccccc2OC)sc(C)c1C (stereo unspecified) | inconclusive [inhibitor, partial curve] | – |
| O=C(CSc1nnc(-c2ccccc2)o1)Nc1ccccc1F | inconclusive [inhibitor, partial curve] | – |
| Cc1ccc(-n2ncc(C(=O)Nc3cc(Cl)cc(Cl)c3)c2C2CCNCC2)cc1C | inconclusive [inhibitor, single point] | – |
| CCOC(=O)NN1C(=O)c2ccccc2NC1c1ccc(N(C)C)cc1 (stereo unspecified) | active: 17.8 µM | – |
| Cc1c(C(=O)Nc2ccc(OCc3ccccc3)cc2)cccc1[N+](=O)[O-] | – | inactive: -6.68% |
| COc1cc(NC(=O)Cn2c(=O)n(CC3CCCO3)c(=O)c3ccccc32)cc(OC)c1 (stereo unspecified) | inconclusive [inhibitor, partial curve] | – |
| Fc1ccc(-c2n[nH]c(=S)n2/N=C/c2c[nH]c3ccccc23)cc1 | inconclusive [inhibitor, single point] | – |
| Cn1cccc1/C=N/N1CCN(c2ccccc2)CC1 | active: 14.1 µM | – |
| O=C(NNC(=S)NC1CCCCC1)c1cccs1 | – | inactive: 2.45% |
| CN(CC(=O)N1CCc2ccccc21)S(=O)(=O)c1cccc2cccnc12 | inconclusive [inhibitor, single point] | – |
| CC1=C(C(=O)Nc2ccc(Cl)cc2)C(c2cccs2)n2nnnc2N1 (stereo unspecified) | active: 5.01 µM | – |
| COc1ccc(CNc2ccccc2SC)cc1OC | inconclusive [inhibitor, single point] | – |
| Cc1cc(/C([O-])=C(/C(=S)Nc2ccc(F)cc2)[n+]2ccccc2)c(C)n1-c1ccc(F)cc1 | – | inactive: -8.6% |
| CSCC[C@H](Nc1ncnc2sc(C)c(C)c12)C(=O)O | inconclusive [inhibitor, single point] | – |
| O=C(NC(Cc1ccccc1)c1ccc2c(c1)OCCCO2)c1ccc(F)cc1 (stereo unspecified) | inconclusive [inhibitor, single point] | – |
| O=C(Cc1cccs1)N1CCN(c2cccc(Cl)c2)CC1 | – | inactive: 6.03% |
| COc1cc(/C=N/Nc2ccccn2)cc(OC)c1O | – | inactive: -9.11% |
| CCN(CC)c1ccc(C(=O)OCC(=O)Nc2sccc2C#N)cc1 | – | inactive: -9.3% |
| CNC(=O)COC(=O)COc1ccc2c(C)cc(=O)oc2c1 | inconclusive [inhibitor, partial curve] | – |
| O=C(O)c1cccc2c1C(=O)c1ccccc1-2 | active: 22.4 µM | – |
| CCOC(=O)C1=C(c2ccccc2)O/C(=C(\C(=O)OC)C(F)(F)F)S1 | – | inactive: -6.3% |
| CC(C)CC(=O)N1CCN(Cc2ccccc2[N+](=O)[O-])CC1 | active: 0.0891 µM | – |
| CCC(C)(C)c1ccc(OCCN2C(=O)NC(C)(C)C2=O)cc1 | inconclusive [inhibitor, single point] | – |
| COCCNC(=O)COC(=O)c1nsc(Cl)c1Cl | inconclusive [inhibitor, single point] | – |

— PubChem BioAssay AID1030 (National Center for Advancing Translational Sciences (NCATS), 2008)
